Test results published in PubChem BioAssay AID1457 (National Center for Advancing Translational Sciences (NCATS), 2008).
Out of some 210,000 compounds screened, about 730 (0.35%) were called active. Inconclusive results, whose numbers are uncertain, are shown with a selection of clear calls. Calls follow the shape of the dose curve; as a rule, active = well fitted inhibition curve with a large enough effect; inconclusive = small, poorly fitted or top-dose-only effect; inactive = no such curve, though single readings can be large or run the other way. A potency beside an inconclusive call is a rough fit, not a confirmed value.

Assay: qHTS Assay for Identifying the Cell-Membrane Permeable IMPase Inhibitors: Potentiation with Lithium; also: nearly all actives have a fitted effect of over 50% in size
Conditions: CHO-M1 cells, IP1 TR-FRET (IP-One), carbachol + lithium; series mostly up to 59.4 µM
Summary of the method: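 Steps: plate 2000 CHO-M1 cells per well and culture 16–30 h; add compound and lithium; incubate 30 min, 37C; add d2-IP1 tracer and Eu cryptate anti-IP1 antibody in lysis buffer; read after 10 min at room temperature.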
Potency is read from the fitted curve at half-maximal effect.

Row | Compound | Potency
1 | COc1ccc(CCn2c(=S)[nH]c3ccc(N4CCOCC4)cc3c2=O)cc1OC | inconclusive: 28.2 µM [inhibitor, single point]
2 | COc1ccc(-n2ncc3c(NCc4ccc5c(c4)OCO5)ncnc32)cc1 | inconclusive: 22.4 µM [inhibitor, single point]
3 | NS(=O)(=O)c1ccc(NC(=O)CSc2ccccc2)cc1 | inactive
4 | CC(=O)Cc1nsc(Nc2ccc3c(c2)OCCO3)n1 | inactive
5 | O=C(Nc1cccnc1)c1cc(-c2cccnc2)nc2ccc(Br)cc12 | inconclusive: 12.6 µM [inhibitor, single point]
6 | C#CCn1c(=NC(=O)c2ccc(S(=O)(=O)N3CCc4ccccc4C3)cc2)sc2cc(S(N)(=O)=O)ccc21 | inconclusive: 12.6 µM [inhibitor, single point]
7 | COc1ccccc1NC(c1cccnc1)c1ccc2cccnc2c1O (configuration not stated) | inactive
8 | COc1ccc(OC)c(/C=C/C(=O)Nc2cccc(S(=O)(=O)N3CCCC3)c2)c1 | inactive
9 | Cc1cc(C)n(-c2ccc(C(=O)NC3CCCCC3)cc2)n1 | inconclusive: 2.82 µM [inhibitor, single point]
10 | Cc1ccc2nc(NC(=S)NC(=O)c3ccco3)sc2c1 | active: 12.6 µM
11 | CCc1nc(SCC(=O)Nc2ccc3c(c2)OCCO3)c2oc3ccccc3c2n1 | inconclusive: 14.1 µM [inhibitor, single point]
12 | COc1ccc(Cl)cc1N1C(=O)C2CCCN2C1c1ccc(F)c(F)c1 (configuration not stated) | inconclusive: 22.4 µM [inhibitor, single point]
13 | CCc1ccccc1OCCCCCNCCO | inactive
14 | Cc1nn(-c2ccccc2Cl)c2sc(C(=O)Nc3nnc(C4CC4)s3)cc12 | inconclusive: 10 µM [inhibitor, partial curve]
15 | COC(=O)c1cc2c(C)cc3ccc(C)cn3c-2c1C(=O)OC | active: 10 µM
16 | CCOc1ccc(/C(O)=C2\C(=O)C(=O)N(c3cc(C)on3)C2c2ccccc2OC)cc1 (configuration not stated) | active: 5.01 µM
17 | CNc1nnc(-c2cc3ccccc3oc2=O)s1 | inconclusive: 11.2 µM [inhibitor, partial curve]
18 | CCc1cc2cc(C(=O)N3CCN(c4ccccc4)CC3)sc2s1 | inconclusive: 28.2 µM [inhibitor, single point]
19 | CC(=O)c1sc2nc(CSc3nncn3C)[nH]c(=O)c2c1C | inconclusive: 5.01 µM [inhibitor, single point]
20 | COC(=O)C(NC(=O)c1ccccc1Cl)(Nc1ncc(S(=O)(=O)c2ccc([N+](=O)[O-])cc2)s1)C(F)(F)F (configuration not stated) | inactive
21 | N#Cc1ccc2ccn(CC(=O)N3CCCc4ccccc43)c2c1 | inconclusive: 28.2 µM [inhibitor, single point]
22 | CCOc1ccc(-n2c(SCC(=O)Nc3ccc4c(c3)OCO4)nc3c(c2=O)SCC3)cc1 | inactive
23 | COc1ccc(NS(=O)(=O)c2cccc(C(=O)N/N=C/c3ccc4c(c3)OCCO4)c2)cc1 | inactive
24 | Cc1ccc2nc(-c3ccc(NC(=O)CN4C(=O)c5ccccc5C4=O)cc3)sc2c1 | inconclusive: 11.2 µM [inhibitor, single point]

Row | Compound | Potency
25 | Cc1cccc(Cn2c(NCCO)nc3c2c(=O)n(C)c(=O)n3C)c1 | inactive
26 | Cc1ccc2nc(NCc3ccccc3)c(C=O)c(=O)n2c1 | inconclusive: 22.4 µM [inhibitor, single point]
27 | COc1ccc(NC(=O)CCCn2c(=O)c3sccc3n(Cc3ccccc3)c2=O)cc1 | inconclusive: 28.2 µM [inhibitor, single point]
28 | COc1ccc(NC(=O)c2cc3n(n2)C(C(F)(F)F)CC(c2ccc4c(c2)OCO4)N3)cc1OC (configuration not stated) | inconclusive: 11.2 µM [inhibitor, single point]
29 | N#CC1=C(N)SC(N)=C(C#N)C1c1cccc(O)c1 | inconclusive: 1.26 µM [inhibitor, full curve, poor fit]
30 | O=C(COC(=O)c1cc(S(=O)(=O)N2CCOCC2)c(Cl)cc1Cl)Nc1ncc(C(F)(F)F)cc1Cl | inconclusive: 12.6 µM [inhibitor, single point]
31 | CCCNC(=O)COC(=O)c1ccc(OCC(=O)Nc2ccccc2OC)c(OC)c1 | inconclusive: 28.2 µM [inhibitor, single point]
32 | Cc1ccc(-c2nc(=S)c3c(n2Cc2ccco2)CCCC3)cc1 | inconclusive: 12.6 µM [inhibitor, single point]
33 | COc1ccc(NC(=O)N2CCCC2C(=O)Nc2ccc(C)c(Cl)c2)cc1 (configuration not stated) | inactive
34 | Cc1cc(C)nc(NC(=S)Nc2ccc(Br)cc2Cl)c1 | inconclusive: 11.2 µM [inhibitor, single point]
35 | CCOC(=O)C1=C(c2ccccc2)N=c2s/c(=C\c3ccc(O)cc3)c(=O)n2C1c1cccs1 (configuration not stated) | inactive
36 | Cc1onc(-c2ccccc2)c1C(=O)Nc1nc(-c2cc(F)ccc2F)cs1 | inconclusive: 28.2 µM [inhibitor, single point]
37 | O=C(CSc1ccc(-c2ccco2)nn1)NCc1ccccc1Cl | inconclusive: 11.2 µM [inhibitor, partial curve]
38 | CCOc1ccc(C(=O)NCC(=O)N2CCC(C)CC2)cc1OCC | inactive
39 | N#CC1=C(N)SC(N)=C(C#N)C1c1c(Cl)cccc1Cl | inconclusive: 14.1 µM [inhibitor, partial curve]
40 | COc1ccc(/C=N/NC(=O)Nc2cccc3nsnc23)c(OC)c1 | inconclusive: 11.2 µM [inhibitor, single point]
41 | Cc1onc(-c2ccccc2Cl)c1C(=O)N[C@H]1C(=O)N2[C@H]1SC(C)(C)[C@H]2C(=O)O | inactive
42 | C=CCn1c(=O)/c(=C/c2cc(OC)c(OC)c(OC)c2)s/c1=C(/C#N)c1nc2ccccc2n1C | inconclusive: 22.4 µM [inhibitor, single point]
43 | CC(C)CN(CC(C)C)S(=O)(=O)N1CCC(C(=O)NCCN2CCOCC2)CC1 | inactive
44 | c1ccc(CSc2nnnn2-c2cccc3ccccc23)nc1 | inconclusive: 28.2 µM [inhibitor, single point]
45 | O=c1[nH]cnc2c1sc1nc3c(c(-c4ccc(Cl)cc4)c12)CCC3 | inconclusive: 12.6 µM [inhibitor, single point]
46 | CC(C)OC(=O)CSc1nc2c(cc1C#N)CCCCC2 | inconclusive: 28.2 µM [inhibitor, single point]
47 | COc1ccc(NC(=O)CSc2ccccc2)c(OC)c1 | inactive
48 | COc1ccc(NC(=O)c2ccsc2NC(C)=O)cc1 | inactive

Row | Compound | Potency
49 | COc1cc(/C=C/C(=O)OCC(=O)NCCc2ccccc2)cc(OC)c1OC | inconclusive: 5.01 µM [inhibitor, single point]
50 | N#Cc1c(-c2ccc(F)cc2)cc(-c2cccnc2)nc1N | inconclusive: 28.2 µM [inhibitor, single point]
51 | Cc1nn(-c2ccccc2)c(C)c1C(=O)Nc1ccc(N2CCOCC2)cc1 | inactive
52 | CCOC(=O)c1[nH]c(C)c(/C(O)=C2\C(=O)C(=O)N(CCN(C)C)C2c2cccc(OC)c2OC)c1C (configuration not stated) | inconclusive: 15.8 µM [inhibitor, single point]
53 | CCc1cccc(C)c1NC(=O)CSc1nc(-c2ccccc2F)nc2nc[nH]c12 | inconclusive: 12.6 µM [inhibitor, single point]
54 | COc1ccc(C(=O)Nc2nc3ccc(S(C)(=O)=O)cc3s2)cc1OC | inconclusive: 28.2 µM [inhibitor, single point]
55 | CN(C(=O)c1ccc(S(=O)(=O)NC2CCCC2)cc1)C1CCCCC1 | inconclusive: 28.2 µM [inhibitor, single point]
56 | CC(C)O | inactive
57 | Cc1ccc(CNC(=O)COc2ccccc2-c2ccccc2)cc1 | inactive
58 | CC1CCCCN1C(=O)c1ccc(COc2ccc([N+](=O)[O-])cc2)o1 (configuration not stated) | inactive
59 | O=C(O)c1ccc(Cn2c(SCc3cc(=O)n4cc(Br)ccc4n3)nc3ccsc3c2=O)cc1 | inconclusive: 10 µM [inhibitor, partial curve]
60 | CN(C)C(=S)Nc1cccc(-c2n[nH]c(=S)o2)c1 | inconclusive: 31.6 µM [inhibitor, partial curve]
61 | COc1ccc(OCC(=O)Nc2cc(-c3nn(C)c(=O)c4ccccc34)ccc2OC)cc1 | active: 7.94 µM
62 | Cc1ccc2[nH]c(=O)c(COC(=O)c3cccs3)cc2c1 | inconclusive: 28.2 µM [inhibitor, single point]
63 | COc1ccc(C(=O)NC(=S)Nc2ccc3c(c2)Cc2ccccc2-3)cc1 | inconclusive: 11.2 µM [inhibitor, single point]
64 | COc1ccc(S(=O)(=O)NNC(=O)c2cc3c4ccccc4n(C)c3s2)cc1 | inconclusive: 28.2 µM [inhibitor, single point]
65 | Cc1sc2nc(SC(C)C)nc(N)c2c1C | inconclusive: 22.4 µM [inhibitor, single point]
66 | N#Cc1cccc(-c2cc(NCc3cccnc3)ncn2)c1 | inactive
67 | COC(=O)c1c(NC(=O)c2ccoc2C)sc2c1CCC2 | inconclusive: 28.2 µM [inhibitor, single point]
68 | COc1ccc(C(=O)c2cc([N+](=O)[O-])ccc2N2CCCC2)cc1 | inactive
69 | FC(F)(F)c1ccccc1-c1cncnc1NCCN1CCOCC1 | inactive
70 | N#Cc1cccc(-c2cc(-n3ccnc3)ncn2)c1 | inconclusive: 28.2 µM [inhibitor, single point]
71 | O=C(COC(=O)c1cncc(Br)c1)NCc1ccccc1 | inconclusive: 5.01 µM [inhibitor, single point]
72 | COc1ccc(/C=C2/N=C3CCCCCN3C2=O)cc1OC | inactive
